# The campaign covered roughly 310,000 compounds. About 2,200 (0.71%) showed an effect of 50% or more. The effect is printed as a negative number. This is one part of the list.
# Molecular target: human ether-à-go-go-related gene (hERG) potassium channel (human, UniProt Q12809)
# Assay: primary screen, population patch clamp on CHO cells stably expressing hERG
# Sequence of human ether-à-go-go-related gene (hERG) potassium channel (Q12809 whole entry, looked up): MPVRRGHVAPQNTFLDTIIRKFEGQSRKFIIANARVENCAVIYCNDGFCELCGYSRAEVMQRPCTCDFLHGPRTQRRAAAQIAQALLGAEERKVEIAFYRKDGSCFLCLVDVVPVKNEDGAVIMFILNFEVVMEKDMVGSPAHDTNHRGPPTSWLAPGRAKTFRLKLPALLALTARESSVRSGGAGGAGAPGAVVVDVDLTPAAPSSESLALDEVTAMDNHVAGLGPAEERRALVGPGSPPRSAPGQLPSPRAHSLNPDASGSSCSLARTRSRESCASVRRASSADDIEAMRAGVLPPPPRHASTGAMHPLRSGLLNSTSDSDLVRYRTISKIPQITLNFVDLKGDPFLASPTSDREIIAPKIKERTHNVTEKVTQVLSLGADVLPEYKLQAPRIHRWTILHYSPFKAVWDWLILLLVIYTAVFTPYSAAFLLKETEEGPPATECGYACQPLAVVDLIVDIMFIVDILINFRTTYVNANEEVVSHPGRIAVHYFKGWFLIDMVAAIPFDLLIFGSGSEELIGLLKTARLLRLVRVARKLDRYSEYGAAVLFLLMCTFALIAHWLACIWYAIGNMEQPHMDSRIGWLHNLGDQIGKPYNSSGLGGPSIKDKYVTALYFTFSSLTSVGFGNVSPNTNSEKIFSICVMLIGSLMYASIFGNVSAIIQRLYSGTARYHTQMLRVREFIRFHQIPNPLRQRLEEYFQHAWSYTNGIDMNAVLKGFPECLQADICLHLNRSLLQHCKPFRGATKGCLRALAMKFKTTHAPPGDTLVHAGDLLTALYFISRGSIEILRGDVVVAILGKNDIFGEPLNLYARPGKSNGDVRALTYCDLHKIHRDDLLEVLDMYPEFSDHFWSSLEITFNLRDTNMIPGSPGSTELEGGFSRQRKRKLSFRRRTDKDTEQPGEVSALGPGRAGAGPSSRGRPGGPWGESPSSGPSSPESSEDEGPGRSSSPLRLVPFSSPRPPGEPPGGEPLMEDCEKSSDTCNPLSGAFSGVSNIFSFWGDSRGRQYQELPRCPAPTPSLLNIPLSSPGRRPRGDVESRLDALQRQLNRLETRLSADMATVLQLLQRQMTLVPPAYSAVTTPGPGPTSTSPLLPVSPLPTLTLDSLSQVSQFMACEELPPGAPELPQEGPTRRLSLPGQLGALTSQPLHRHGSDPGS
row,SMILES,"hERG current change (%, negative = inhibition) at 1uM"
1,COc1ccc(CC(=O)NNC(=O)c2cc(C)[nH]n2)cc1,20.5%
2,O=C(O)c1ccccc1C(=O)NCC(O)c1ccccc1 (centres unmarked),-0.637%
3,Cc1ccc(S(=O)(=O)Cc2nc3ccccc3c(=O)[nH]2)cc1,-5.44%
4,C=CCN1C(=O)c2ccc(C(=O)N(C)CC(=O)Nc3ccc(OCC)c(OCC)c3)cc2C1=O,-11%
5,O=C(CN1C(=O)COc2ccccc21)NCc1ccccn1,-5.78%
6,COc1ccccc1NC(C)=O,4.87%
7,CC(=O)Nc1ccc(OCC(O)Cn2ccnc2)cc1 (centres unmarked),25.7%
8,CC1CCCN(c2nc3c(c(=O)[nH]c(=O)n3C)n2CCSc2nc3ccccc3o2)C1 (centres unmarked),-0.325%
9,Cc1ccc([N+](=O)[O-])cc1NC(=O)C(C)N1CCCCC1 (centres unmarked),18.1%
10,Cc1cc(C)c2nc(SCCc3ccccc3)nc(C)c2c1,-8.27%
11,CCOc1ccccc1NC(=O)N1CCC(NC(=O)c2cccc(C)c2)CC1,12.5%
12,COc1ccc([C@H]2CC(=O)C=C(c3ccc4ccn(C)c4c3)C2)cc1,10.6%
13,O=C(COC(=O)COc1ccccc1Cc1ccccc1)Nc1cccnc1Cl,8.3%
14,Cc1nnc(SCC(=O)NNC(=O)c2ccccc2)n1N,17.1%
15,Cc1cccc(OCc2nnc(N)s2)c1C,11%
16,CCC(=O)c1cn(CC(=O)NCC2CCCO2)c2ccccc12 (centres unmarked),10.1%
17,Cc1cc(NC(=O)CCS(=O)(=O)c2nc(-c3ccccc3)cc(C(F)(F)F)n2)no1,-0.0403%
18,CCOC(=O)N1CCN(C(=O)C2CC(c3ccc(F)cc3)=NO2)CC1 (centres unmarked),-15.2%
19,CCN(c1ccccc1)S(=O)(=O)c1ccc(C(=O)Nc2ncccc2O)cc1,4.33%
20,COc1ccc(NC(=O)CN2C3CCC2CC(O)(c2cccnc2)C3)cc1OC (centres unmarked),5.42%
21,Cc1cc(=O)oc2cc(OCC(=O)N3CCCC(C)C3)ccc12 (centres unmarked),-8.52%
22,CC(C)c1ccc(NC(=O)CSc2nc(-c3ccccc3F)nc3nc[nH]c23)cc1,1.94%

row,SMILES,"hERG current change (%, negative = inhibition) at 1uM"
1,COc1cc2ccccc2cc1C(=O)Nc1ccc(CN2CCOCC2)cc1,12.7%
2,CCC(C)C1N=C(c2ccccc2)c2cc(Cl)ccc2N(CC(=O)NCc2ccco2)C1=O (centres unmarked),6.48%
3,CCN(CC)S(=O)(=O)c1ccc(Cl)c(C(=O)Oc2cccc(-c3cnc4ccccc4n3)c2)c1,9.54%
4,Cc1cc2c3c(c1)C1(C(=O)N3C(C)(C)CC2C)C(C#N)=C(N)Oc2n[nH]c(C)c21 (centres unmarked),10.5%
5,Cc1cccc(N/C(N)=N/c2nc(C(F)(F)F)cc(=O)[nH]2)c1C,11.5%
6,O=C(Nc1ccc(N2CCCCC2)cc1)C1CCCN1S(=O)(=O)c1ccc(F)cc1 (centres unmarked),7.86%
7,CSCC(C)N1CCC(n2nccc2NC(=O)c2ccc3c(c2)OCO3)CC1 (centres unmarked),9.41%
8,CCOC(=O)N1CCN(C2CC(=O)N(c3ccc(C)cc3)C2=O)CC1 (centres unmarked),12.6%
9,Cc1ccc2nc(Nc3ccccc3)c(C=O)c(=O)n2c1,9.96%
10,O=C(CN(Cc1ccccc1Cl)C(=O)c1ccc(CN2CCOCC2)o1)NCC1CCCO1 (centres unmarked),15.2%
11,N#CCC(=O)Nc1ccc(C(=O)OCC(=O)Nc2ccc3ccccc3c2)cc1,6.67%
12,O=C(NC1CCN(C(=O)NCc2ccccc2)CC1)c1ccccc1,18.5%
13,Nc1ccc2c(c1)C(=O)C(=O)c1ccccc1-2,5.93%
14,O=C(c1ccco1)N1CCN(Cc2csc(-c3ccccc3Cl)n2)CC1,-4.33%
15,Cc1ccc(NC(=O)CSc2nnc(C(F)(F)F)n2C)cc1[N+](=O)[O-],-6.8%
16,Cc1cccc(Nc2ncccc2C(=O)O)c1C,18.5%
17,c1ccc(N2CCN(c3ccccc3)C2c2cccnc2)cc1,7.09%
18,CCC(=O)c1ccc(N2CCOCC2)c(F)c1,4.91%
19,CC(C)NC(=O)CSCc1c(F)cccc1Cl,15.1%
20,O=C(NCc1ccc(Cl)cc1)C1CCN(S(=O)(=O)c2cc([N+](=O)[O-])ccc2Cl)CC1,-27%
21,Cn1c(SCC(N)=O)nnc1-c1ccc(C(C)(C)C)cc1,16.5%
22,Cc1cc(SCc2cc(=O)n3ccsc3n2)nc2ccccc12,-0.661%

# Reference: publication PMC4336329 (PLoS ONE, 2015)
